Assay results published in PubChem BioAssay (NCI).
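Five compound concentrations were applied to cells in 96-well plates for 48 hours; endpoints were derived by simple linear interpolation of the resulting dose-response curve. Abbreviation: GI50, concentration required for 50% inhibition of growth.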 Not every entry of the source has a single result; some have several. The list is limited to them. The source may hold further records. The values listed for one entry are repeats across runs, samples, wells, individuals or studies. What stands in brackets tells the records apart. Letters count within one entry.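 The concentration for full growth arrest is given as TGI.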

How the values were obtained:
Assay in all cases: NCI-60 cell line screen, 48 h
LOX IMVI melanoma = system: LOX IMVI melanoma
A549 NSCLC = system: A549 NSCLC
OVCAR-4 ovarian = system: OVCAR-4 ovarian
HOP-62 NSCLC = system: HOP-62 NSCLC
SK-MEL-28 melanoma = system: SK-MEL-28 melanoma
SK-MEL-2 melanoma = system: SK-MEL-2 melanoma
ACHN renal = system: ACHN renal
TK-10 renal = system: TK-10 renal
EKVX NSCLC = system: EKVX NSCLC
SF-268 CNS = system: SF-268 CNS
U251 CNS = system: U251 CNS
NCI-H226 lung = system: NCI-H226 lung
K-562 leukemia = system: K-562 leukemia
HS 578T breast = system: HS 578T breast
SN12C renal = system: SN12C renal
NCI-H522 lung = system: NCI-H522 lung
MCF7 breast = system: MCF7 breast
CCRF-CEM leukemia = system: CCRF-CEM leukemia
786-0 renal = system: 786-0 renal
SF-295 CNS = system: SF-295 CNS

Question: Which results are given for `Cc1cc(C(=O)NOCCO)c(Nc2ccc(I)cc2F)n(C)c1=O`?
Answer: GI50 (LOX IMVI melanoma): 5.46 nM [sample A, mean of 2 tests] and 283 nM [sample B, mean of 2 tests]; GI50 (A549 NSCLC): 69.6 nM [sample A, 1 test] and 813 nM [sample B, mean of 2 tests]; GI50 (OVCAR-4 ovarian): > 10 µM [sample A, mean of 2 tests] and 640 nM [sample B, mean of 2 tests]; GI50 (HOP-62 NSCLC): 26.8 nM [sample A, mean of 2 tests] and 495 nM [sample B, mean of 2 tests]; TGI (SK-MEL-28 melanoma): 13.9 nM [sample A, 1 test] and > 100 µM [sample B, 1 test]; TGI (SK-MEL-2 melanoma): 1.2 µM [sample A, 1 test] and < 10 nM [sample B, 1 test]; GI50 (ACHN renal): 44.1 nM [sample A, 1 test] and 2.97 µM [sample B, mean of 2 tests]; GI50 (TK-10 renal): > 10 µM [sample A, 1 test] and < 10 nM [sample B, mean of 2 tests]

Question: With `O=C(Nc1ccc([N+](=O)[O-])cc1Cl)c1cc(Cl)ccc1O` as the compound, how does the TGI (EKVX NSCLC) read?
Answer: Its TGI is > 100 µM [sample A, mean of 2 tests] and 4.77 µM [sample B, mean of 2 tests].

Question: What about the TGI (LOX IMVI melanoma) of the same compound?
Answer: The TGI was 7.05 µM [sample A, mean of 2 tests] and 645 nM [sample B, 1 test].

Question: And the TGI (SF-268 CNS)?
Answer: The TGI was > 92.9 µM [sample A, mean of 2 tests] and 5.2 µM [sample B, mean of 2 tests].

Question: And the TGI (U251 CNS)?
Answer: Its TGI is > 100 µM [sample A, mean of 2 tests] and 9.97 µM [sample B, mean of 2 tests].

Question: And the TGI (NCI-H226 lung)?
Answer: The TGI was 9.44 µM [sample A, mean of 2 tests] and 646 nM [sample B, 1 test].

Question: What about the TGI (K-562 leukemia) of the same compound?
Answer: The TGI was > 100 µM [sample A, mean of 2 tests] and 5.19 µM [sample B, mean of 2 tests].

Question: What about the TGI (HS 578T breast) of the same compound?
Answer: Its TGI is 884 nM [sample A, mean of 2 tests] and 11.7 µM [sample B, mean of 2 tests].

Question: What about the TGI (SN12C renal) of the same compound?
Answer: Its TGI is > 33.4 µM [sample A, mean of 2 tests] and 2.34 µM [sample B, mean of 2 tests].

Question: And the TGI (NCI-H522 lung)?
Answer: Its TGI is 3.19 µM [sample A, mean of 2 tests] and 276 nM [sample B, mean of 2 tests].

Question: What about the TGI (MCF7 breast) of the same compound?
Answer: The TGI was > 100 µM [sample A, 1 test] and 1.13 µM [sample B, mean of 2 tests].

Question: And the TGI (CCRF-CEM leukemia)?
Answer: Its TGI is 14.1 µM [sample A, 1 test] and 1.31 µM [sample B, 1 test].

Question: With `Cn1cc(-c2[nH]c3cc(NC(=O)[C@H](N)C4CCCCC4)cc4c3c2C=NNC4=O)cn1` as the compound, how does the TGI (786-0 renal) read?
Answer: Its TGI is 858 nM [sample A, mean of 2 tests] and > 10 µM [sample B, mean of 2 tests].

Question: What about the TGI (SF-295 CNS) of the same compound?
Answer: Its TGI is 986 nM [sample A, mean of 2 tests] and > 10 µM [sample B, mean of 2 tests].
